Results on 94 sequences are retold here after the supplement of paper PMC3334620.

Whole data set: some 33,000 sequences, median “E-score (-0.5 to 0.5)” near -0.036, cut for the highest 2% near 0.37. Some of the results follow.

The target in this assay is T1, Yer064c (UniProt P40041).
T1 sequence: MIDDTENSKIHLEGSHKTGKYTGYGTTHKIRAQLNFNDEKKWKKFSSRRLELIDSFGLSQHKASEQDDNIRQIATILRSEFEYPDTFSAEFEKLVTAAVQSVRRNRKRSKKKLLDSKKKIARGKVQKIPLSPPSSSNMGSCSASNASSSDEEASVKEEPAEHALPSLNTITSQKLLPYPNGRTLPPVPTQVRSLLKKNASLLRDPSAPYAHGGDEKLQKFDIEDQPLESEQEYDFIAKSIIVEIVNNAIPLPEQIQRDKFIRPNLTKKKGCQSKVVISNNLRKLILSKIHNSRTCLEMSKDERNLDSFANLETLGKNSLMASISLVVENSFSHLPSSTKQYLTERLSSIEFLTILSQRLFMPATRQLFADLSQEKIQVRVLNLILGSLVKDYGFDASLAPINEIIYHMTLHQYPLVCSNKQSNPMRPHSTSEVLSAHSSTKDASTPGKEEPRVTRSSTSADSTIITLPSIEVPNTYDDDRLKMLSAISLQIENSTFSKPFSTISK
Briefly: PBM E-score (8-mer binding enrichment) (E-score (-0.5 to 0.5)); higher = stronger / more preferred TF binding; most listed sequences are background and not binding sites. To be noted: protein concentration: 200 nM; construct: GST-full length. On the procedure: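 Universal 'all 10-mer' protein binding microarrays (Agilent AMADID 015681) probed with GST-tagged S. cerevisiae TFs (full-length or DBD) made by in vitro transcription/translation (PURExpress), about 100-200 nM. Bound TF was detected with fluorescent anti-GST. Each ungapped 8-mer (which stands for itself and its reverse complement) is scored by the PBM enrichment score (E-score), a modified Wilcoxon-Mann-Whitney statistic from -0.5 to +0.5, computed with the Universal PBM Analysis Suite. Scale: above 0.35 generally sequence-specific binding.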
On to ACAGATGG, for which the “PBM E-score” value is -0.194.
Consider ACACGTGT, for which the “PBM E-score” value turned out to be 0.0605.
As for ATGGTCGA, the “PBM E-score” value is 0.0686.
As for AGGATGAC, the “PBM E-score” value was found to be 0.32.
For GAACGTCA, the “PBM E-score” value is -0.215.
For the sequence CCGCCAGC, the “PBM E-score” value was -0.285.
Take GGAAGAGA: the “PBM E-score” value was -0.0994.
As for CGGTATTA, the figure is 0.0718.
With ATATACTA the figure was 0.0982; with CAGAGCGG, -0.0725; with CCTGCCTA, -0.214.
Consider AGTTGTTG, for which the “PBM E-score” value was -0.141.
As to CCCGTGTA, the “PBM E-score” value was -0.226.
On to TCAGTCGA, for which the “PBM E-score” value came out at 0.244.
As for CCTGAGAA, the “PBM E-score” value is 0.0016.
On to AAGAAACG, for which the “PBM E-score” value was -0.028.
GGCTACCC: the “PBM E-score” value is -0.0673.
As for GGATCCGA, the figure is -0.0154; as for ATTATCTA, 0.198.
In the case of AAAAAACA, the “PBM E-score” value is 0.0664.
With ACCCGGAC, the “PBM E-score” value was found to be 0.0263.
Consider GTTATGCA, for which the “PBM E-score” value was -0.00398.
As for GACATGTC, the figure is -0.228; as for GAAGGCGA, -0.164; as for ATCATACC, 0.264.
For the sequence AAAAGAGC, the “PBM E-score” value turned out to be 0.0186.
With CGTAACTA the figure was 0.00757; with ATGTAGGA, -0.124; with ATCGACAT, -0.0554.
For CGGTTTTC, the “PBM E-score” value is -0.00995.
As for AGTATATC, the “PBM E-score” value was -0.00374.
CGTTCGGC: the “PBM E-score” value is -0.129.
For CGCATTAC, the “PBM E-score” value is -0.161.
As for GCTGCACC, the “PBM E-score” value is -0.182.
Turning to GAGGCCGC, the “PBM E-score” value is -0.363.
For CCCGGAAC, the “PBM E-score” value was -0.178.
In the case of AACTGTAA, the “PBM E-score” value was -0.0147.
As for AGAGCTTA, the figure is -0.0296; as for ATCTCATA, 0.0865; as for CTACCATC, -0.124.
For the sequence CGGACCCG, the “PBM E-score” value is -0.0357.
On to CGGGCTTA, for which the “PBM E-score” value was -0.215.
For ACCTCATC, the “PBM E-score” value is -0.0746.
As for GCAAGGGA, the figure is -0.101; as for ACCTTCAC, -0.074; as for ATATTATC, -0.0585.
Turning to GATTACAC, the “PBM E-score” value was 0.266.
Take AGCGGGTG: the “PBM E-score” value is -0.0663.
With CATAGCCA, the “PBM E-score” value turned out to be 0.0841.
On to AGTCGCTA, for which the “PBM E-score” value came out at 0.371.
With CTAGGCCC the figure was -0.335; with CAAGTCCC, -0.149; with GTGGGACA, -0.164.
With ATGTCCAC, the “PBM E-score” value was -0.288.
As for ATCCTATA, the figure is 0.0379; as for CACTGAAA, 0.00366.
For GACCGTAC, the “PBM E-score” value is -0.191.
Consider CGATAATC, for which the “PBM E-score” value amounted to 0.169.
As for ACGTCACC, the “PBM E-score” value was -0.162.
As for AAATCAAC, the figure is 0.114; as for CTCGCTCC, -0.123.
For ACACCAGG, the “PBM E-score” value is -0.148.
With AATACGCA the figure was -0.102; with ACGCGGGC, -0.251; with AGGTATTC, -0.149.
Turning to GTCGCCTA, the “PBM E-score” value is -0.0597.
For AGCGAGCA, the “PBM E-score” value was -0.0821.
Take CCACGGAC: the “PBM E-score” value is -0.252.
With CGAGCCAA, the “PBM E-score” value was -0.0784.
In the case of CTTACCCC, the “PBM E-score” value was -0.132.
Turning to ACTTGTTG, the “PBM E-score” value was -0.0377.
As for CTCAGAAA, the figure is 0.0849; as for AAGAGACG, -0.148.
With AGTACGCA, the “PBM E-score” value is -0.0264.
For the sequence CGGCTCTA, the “PBM E-score” value is -0.112.
For CAGACTAA, the “PBM E-score” value is 0.317.
As for ATGTACCG, the “PBM E-score” value stood at 0.046.
On to AAGGAGTG, for which the “PBM E-score” value was -0.187.
ACCAATAT: the “PBM E-score” value was determined as 0.063.
Consider ACCTCGCA, for which the “PBM E-score” value was -0.145.
Consider AACAGCAA, for which the “PBM E-score” value is -0.0406.
Consider CGCCAAGC, for which the “PBM E-score” value was -0.102.
For ACACACGC, the “PBM E-score” value came out at 0.0953.
On to AACCGTGA, for which the “PBM E-score” value amounted to 0.174.
With GAGACCTC the figure was 0.0495; with CACGGTGA, 0.0984; with CTCGGCGC, -0.182.
For ACGCAATG, the “PBM E-score” value was -0.116.
With CGGCCATA, the “PBM E-score” value is -0.0901.
For the sequence ATAGCACC, the “PBM E-score” value is -0.165.
Regarding CGCCATAG, the “PBM E-score” value is -0.163.
With CAGAGTCG, the “PBM E-score” value worked out at 0.324.
As for CAGCATAG, the “PBM E-score” value worked out at 0.00792.
As to ATGTAAAG, the “PBM E-score” value was -0.0273.
